Data on 1 molecule can be found in PubChem BioAssay (NCI).

The source holds several records for some structures; these can differ, active in one and inactive in another.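 The endpoint reported here, percent growth, reads 100 for growth as untreated, 0 for no net growth and -100 for all cells dead.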 The source holds more than one record for some entries. This list holds those alone. How the source made its calls: active means growth percent below 10; inactive means the rest. An entry can have further records. These are repeated runs of one drug, at its own concentration, as given; one value stands for one run. Marks such as (2×) stand for listed records that agree.

Test [1] concerns NCI-H522 lung. The test is described as follows: NCI-60 one-dose screen, 48 h (100 = growth as untreated, 0 = no growth, -100 = all killed). The settings on record: 2.5 mM.
Test [2] has as its system A549/ATCC NSCLC. Described as above. Conditions: 2.5 mM.

With `O=c1[nH]cc(F)c(=O)[nH]1`, the growth entry in test [1] (runs of 1991) was “active: -42, -40.6, -28.4, -46.5, -13.9, -16, -33.2, -57.5, 7.01, -20.1, -9.1, -35.4, -61.2, -36, 5.51, -3.49, -26.6, -63.5, -42.9%”; in test [1] (runs of 1992), “active: -20, -23.9, 2.42, -34.9 (3×), -52.9, -22.3, 4, 4.52, 6.89, -22.8, -35.7, -47.5, -56.7, -58, 5.42, -11.9, -20.3, -37.1, -5.63, 6.46, -7.51, -32.2, -52, -45.5, -16.6, 5.64, -54.7 (3×), -36.7, -8.89, -61.3, -9.82, -17.4, -11, -32.8, -17.6, -6.73, -33.7, -45.8, -19.5, -54.6, -29.4, -58.9, -49.4, -38.7, -24.4, -29.8, -35.5, 9.34, -8.7, -16.7, -49.3, -44.5, -47 (2×), 5.01, -50.2, 4.81, -7.24, -19.7, 0.97, 7.86, -31.8, -43.2, -61, -32.7, -50.6, 5.84, -54.4, -18, -15.5, -21, -38, -40, -28.6, -6.33, -5.85, -11.3, -57.9, -3.18, -23.2, -51.6, -52.8, -55.1, -46.6, -34, 3.93, -9.81, -29.2, -13.6, -9.34, -39.2, -60.1, -29.1, -30.2, -25.1 (2×), -4.63, 6.32, -20.8, -51.4, 4.62, 5.15% and inactive: 14.9, 27.8, 37.6, 11.3, 11.9, 16, 12, 13.7, 21.8, 28.9, 14.1, 29%”; in test [1] (runs of 1993), “active: -39.4, -11.7, 7.62, -40.2, -13.6, 8.28, -23.6, -21.5, 0.283, 4.65, -9.48, -15, -19.5, -33.9, -1.91, -48.7% and inactive: 21.7, 11.5, 67.7, 12.1, 18.6, 11.8 (2×), 18.3, 23.2, 26.5, 15.3, 10.2, 12.3, 23.9, 38.7, 18.1, 15.9, 36.3, 65.1, 13.5, 59.1, 21.3, 30, 35.7%”; in test [1] (runs of 1994), “active: 0.762, -1.63, -41.8, -37.1, -35.6, -11.5, -43.8, 0, -13.6, -10.4, -51.3, -10.2, 0.411, -3.68, 1.35, 0.958% and inactive: 20, 17.5, 26.1, 29, 13.1 (2×), 24.9, 22.7, 25.6, 12.2, 46.3, 18.3, 53.3%”; in test [1] (runs of 1995), “active: 7.29, -8.72, -36.2, -42.9, 4.24, -24.9, -19.2, -1.57, -1.6, -6.65, 6.51, 2.97, 6.44, -60.9, -35.1, -21.7, -4.27, -8.76, 0.121, 9.05, 0, -1.32, 1.09, -19.5, -2.56% and inactive: 16.9, 41.4, 10.1, 14.6, 11.7, 21.7, 22.3, 14.3 (2×), 12.5, 16.5, 33.5%”; in test [1] (runs of 1996), “active: 4.54, -15, -39.9, 6.49, -38.2, -17.5, -18.2, 1.46, 0.101, -42.5, 7.85, -14.9, 5.92, 8.03, -20.6, -23.3, -16.3, -50.9, -2.9, -11.8, 5.36, -39.5, 6.65, -24.6, 7.69, -2.04, 8.25, 0.825, -3.28, 8.83, -16.7, 4.73% and inactive: 14.4, 37.9, 12.2, 17.4, 10.4, 15.7, 44.1, 16.9, 18.8, 15.6, 13.9, 40.9, 24.3, 14.7, 35.1, 45.4, 18.1, 46.1, 42.2%”. In addition, the growth result in test [1] (runs of 1997) is “active: 3.58, 9.75, -33.9, -10.7, -50.6, 2.42, -25.9, -1.47, 3, -22.7, -23.7, -15.1, -1.59, -32.6, -7.34, -9.23, -25.5 (2×), -20.1, 6.02, -20.6, -6.23, -27.8, -16.8, -15% and inactive: 26.8, 18.5, 37.2, 11.6, 19.5, 21.7, 32.6, 15.6, 35.1, 13.7%”; in test [1] (runs of 1998) it was “active: 4.48, -6.39, -6.07, -1.6, 6.33, -22.3, 7.78, 4.09, -8.2, 8.8, -44.9, -10.3, -24.6, -7.91, -19, -38.4, 2.73, -41.6% and inactive: 13.4, 15.5, 19.5, 11.9, 25.6%”; in test [1] (runs of 1999), “inactive: 33.2% and active: -38.6, -41.5, -28.2, -15.2, -5.5, -89.9, -79.1, -66.1, 2.38, -31.6, -68.7, -59.8, -59.6, -35.3%”; in test [1] (runs of 2000), “active: -31.3%, 1.17%, -53.6% and inactive: 14.1%”; in test [2] (runs of 1991), “active: 3.74, -15.7, 7.08, 5.87, 3.84, -7.69, 6.5, -20.3, -24.3, -6.43, -18.6, 5.32, 7.71, -20.7, -13.1, 0.993, 9.52, -6.76, -27, -16.8%”; in test [2] (runs of 1992), “active: -4.7, -1.69, 5.04, 5.6, 3.51, 1.87, -34.4, -36.1, 5.11, -28.6, 7.56, -19.6, -21.2, 3.5, -31.7, -64.1, 9.3, 7.45, -37.3, 5.5, 0.128, 7.62, 5.1, -0.121, -1.08, 9.05, 0.381, 0.553, -55.2, -39.4, 4.43, 2.46, -54.7, -31.3, -12.3, 3.14, 8.97, -12.1, -40.6, -15.5, -9.63, 1.11, -3.34, -8.81, -4.17, 5.97, -38.1, -1.13, -35.4, 2.28, -21.6, 4.35, 6.98, 8.85, 4.57, -11.3, -0.193, 7.03, -42.7, 6.02, -38.7, -38.3, 1.45, -42.2, -35.2, -12, 3.69, 5.87, -1.72, -37.7, -42.8, -42.1, -9.38, -7.95, -13.4, 8.82, 2.2, 2.48, -13.5, 3.32, 3.81, -22, 4.38, -24.6, -13.7, 0.145, -41.5, 0.65, -43, 0, -27.3, 0.851% and inactive: 11.7, 22, 13.7 (2×), 30.1, 15, 45.9, 37.5, 25.4, 12.2, 16.2, 13.5, 12.1, 13.8, 10.3, 11.1 (2×), 10.9, 13, 15.2, 12.6, 13.4, 16.1, 16.7, 11.8, 15.3, 16.6, 101, 18.5%”. The growth result in test [2] (runs of 1993) was “inactive: 12.4, 14.5, 16.2, 22.2, 20.7, 16.9 (2×), 10.1, 12.7, 11.3, 14.3, 11.1, 19.2, 16.1, 10, 13.9, 20, 16.5, 11.2, 12.9, 78.9, 10.6, 11.6, 10.8, 14.6% and active: -13.3, -10.1 (2×), -16.1, 0.625, -3, 4.56, 3.75, 5.28, 7.96, -14.4, 1.67, 4.24, 0.817, 8.72, 0.778, -29.4, 4.7, -3.42, 5.66, 6.84, -8.36%”; in test [2] (runs of 1994) it was “active: 3.09, 5.76, -0.767, -3.52, 4.25, -1.53, -18.8, 8.59, 2.71, -7.54, -2.54, 2.58, -1.61, 3.77, 9.18, 6.13, -28.2, 7.45, 9.63, -6.01, 8.26, -12.7, 9.98, 7.49, 8.62, -13.4, 7.26% and inactive: 14.4, 10.1, 12.8, 11.3, 12.1, 12.4, 14.7%”; in test [2] (runs of 1995), “inactive: 11.8, 13.8, 11.3, 26.5, 14, 24.3, 15.9, 19.4, 22.1, 48.2, 16% and active: -3.59, -13.1, -31.2, 6.07, -8.82, -4.11, 3.66, 3.05, -22.3, -7.47, 6.96, 9.41, 9.05, 1.69, 2.96, 4.4, -48.7, 5.97, 8.4, 3.29, 2.75, 7.05, -19.5, -35.5, -20.1, 4.92, 7.35%”.
